# Data: the antibiotic and cytotoxicity screens of Wong et al. (2023)
# The other results are listed elsewhere or left out.
# Assays:
# HSkMC = human skeletal muscle cells; experiment: cytotoxicity call (relative viability < 0.9); conditions: 10 µM
# HepG2 = experiment: cytotoxicity call (relative viability < 0.9); conditions: 10 µM
# S. aureus RN4220 = experiment: growth inhibition call (relative growth <= 0.2); conditions: 50 µM
SMILES,cytotoxicity call (HSkMC),cytotoxicity call (HepG2),growth inhibition call (S. aureus RN4220)
C[C@H]1CN([C@@H](C)CO)C(=O)c2cccc(NC(=O)Nc3ccc(C(F)(F)F)cc3)c2O[C@H]1CN(C)Cc1ccc2c(c1)OCO2,inactive,inactive,inactive
O=C(C[C@@H]1C=C[C@@H](NC(=O)CN2CCOCC2)[C@H](CO)O1)NCCc1ccncc1,inactive,inactive,inactive
CC(C)[Si](C#C[Si](C(C)C)(C(C)C)C(C)C)(O[C@H](c1ccccc1)c1cn(Cc2ccccc2)nn1)C(C)C,inactive,inactive,inactive
C[C@@H]1CN([C@@H](C)CO)C(=O)c2cc(NC(=O)NC3CCCCC3)ccc2O[C@@H](C)CCCCO[C@@H]1CN(C)S(=O)(=O)c1ccccc1,inactive,inactive,inactive
Cc1ccc(S(=O)(=O)Nc2ccc3c(c2)C(=O)N([C@@H](C)CO)C[C@H](C)[C@@H](CN(C)C(=O)Nc2ccc4c(c2)OCO4)OCCCC[C@H](C)O3)cc1,inactive,inactive,inactive
C[C@@H]1CCCCO[C@@H](CN(C)Cc2ccccc2)[C@H](C)CN([C@H](C)CO)C(=O)c2cc(NC(=O)Nc3ccc(F)cc3)ccc2O1,inactive,inactive,inactive
CCS(=O)(=O)Nc1ccc2c(c1)C(=O)N(C)[C@@H]1CC[C@H](CC(=O)NCc3ccc(OC)cc3)O[C@@H]1CO2,inactive,inactive,inactive
NC(=S)c1ccc(-n2cncn2)nc1,inactive,inactive,inactive
C[C@H]1CN([C@@H](C)CO)C(=O)c2cccc(NC(=O)Nc3cccc4ccccc34)c2O[C@H]1CN(C)S(=O)(=O)c1ccccc1,inactive,inactive,inactive
Cc1noc(C)c1NC(=O)Nc1ccc2c(c1)C(=O)N([C@@H](C)CO)C[C@@H](C)[C@@H](CN(C)S(=O)(=O)c1ccc(Cl)cc1)OCCCC[C@H](C)O2,inactive,inactive,inactive
C=CC(C1=CC(=O)C(OC)=CC1=O)c1ccc(O)cc1 (stereo not given),inactive,active,inactive
COC(=O)C(CC#Cc1ccc2c(c1)[C@]1(C(=O)N2)[C@H](c2ccccc2OCCO)N2[C@H](c3ccccc3)[C@H](c3ccccc3)OC(=O)[C@H]2[C@@H]1C(=O)Nc1nc2ccccc2s1)C(=O)OC,inactive,inactive,inactive
C[C@@H]1CN([C@@H](C)CO)C(=O)c2cc(NS(=O)(=O)c3ccc(F)cc3)ccc2O[C@@H](C)CCCCO[C@H]1CN(C)C(=O)Nc1cccc2ccccc12,inactive,inactive,inactive
O=C(Nc1ccc(-c2nc3cc(NC(=O)c4ccccc4Cl)ccc3o2)cc1)c1ccccc1Cl,inactive,active,inactive
C[C@@H]1CCCCO[C@@H](CN(C)CC2CC2)[C@H](C)CN([C@H](C)CO)C(=O)c2cc(NC(=O)c3ccccc3)ccc2O1,inactive,inactive,inactive
N#CC1C(=O)NC(=O)N=C1Nc1ccccc1 (stereo not given),inactive,inactive,inactive
CCCC#Cc1ccc2c(c1)O[C@@H](CN(C)S(=O)(=O)c1cccc(F)c1)[C@@H](C)CN([C@H](C)CO)S2(=O)=O,inactive,inactive,inactive
C[C@H]1CN([C@@H](C)CO)C(=O)Cc2cc(NC(=O)Cc3ccccc3)ccc2O[C@@H]1CN(C)S(=O)(=O)c1ccc(F)cc1,inactive,inactive,inactive
CC(C)NC(=O)N(C)C[C@H]1Oc2c(NS(=O)(=O)c3ccccc3)cccc2C(=O)N([C@H](C)CO)C[C@H]1C,inactive,active,inactive
C[C@@H]1CCCCO[C@@H](CN(C)C(=O)CCCN(C)C)[C@H](C)CN([C@@H](C)CO)C(=O)c2cc(NS(C)(=O)=O)ccc2O1,inactive,inactive,inactive
CN(C)C1CCN(C(=O)c2cnc(-c3noc4cc(-c5cccc(C(F)(F)F)c5)ccc34)s2)CC1,active,active,inactive
CO[C@@H]1CN(C)C(=O)c2ccc(NS(=O)(=O)c3cn(C)cn3)cc2OC[C@@H](C)N(Cc2cccc(F)c2)C[C@@H]1C,inactive,inactive,inactive
CC(C)NC(=O)N(C)C[C@@H]1Oc2c(NC(=O)C3CCOCC3)cccc2C(=O)N([C@H](C)CO)C[C@@H]1C,inactive,inactive,inactive
Cc1ccc(S(=O)(=O)Nc2ccc3c(c2)C(=O)N([C@H](C)CO)C[C@H](C)[C@@H](CN(C)C(=O)C2CCCCC2)OCCCC[C@H](C)O3)cc1,inactive,inactive,inactive
O=C(CCCCCNC(=O)OCc1ccc(CO[C@H]2C[C@@H](C3CCCCC3)C=C(C(=O)N3CCN(Cc4ccccc4)CC3)O2)cc1)NO,inactive,inactive,inactive
CC(C)NC(=O)Nc1ccc2c(c1)CC(=O)N([C@H](C)CO)C[C@@H](C)[C@H](CN(C)S(=O)(=O)c1ccccc1)O2,inactive,inactive,inactive
COc1ccc(CN(C)C[C@H]2OCCCC[C@H](C)Oc3ccc(NS(=O)(=O)c4c(C)noc4C)cc3C(=O)N([C@H](C)CO)C[C@@H]2C)cc1,inactive,inactive,inactive
Cn1cc(C(=O)N2C[C@@H]3COC[C@@]3(CNS(C)(=O)=O)C2)cn1,inactive,inactive,inactive

SMILES,cytotoxicity call (HSkMC),cytotoxicity call (HepG2),growth inhibition call (S. aureus RN4220)
NNC(=O)CCCC[C@H]1SC[C@H]2NC(=O)N[C@H]21,inactive,inactive,inactive
CCc1c(C)[nH]c2c1C(=O)C(CN1CCOCC1)CC2.Cl (stereo not given),inactive,inactive,inactive
C[C@H]1CN([C@@H](C)CO)C(=O)c2cc(NC(=O)CCC(F)(F)F)ccc2O[C@H]1CN(C)Cc1ccc(C(F)(F)F)cc1,inactive,inactive,inactive
CCC(=O)N(C)C[C@@H]1Oc2ncc(C#C[C@H](C)O)cc2C(=O)N([C@H](C)CO)C[C@@H]1C,inactive,inactive,inactive
C[C@H](CO)N1C[C@H](C)[C@@H](CN(C)CC2CCCCC2)Oc2c(NC(=O)c3ccc(-c4nccs4)cc3)cccc2C1=O,inactive,inactive,inactive
CC1CCC2(OC1)OC1CC3C4CC=C5CC(O)CCC5(C)C4CCC3(C)C1C2C (stereo not given),inactive,inactive,inactive
CCC(=C/[C@H](C)C/C=C/C(C)=C/[C@@H](C)C(=O)[C@@H](C)[C@H](O)[C@@H](C)C/C(C)=C/C(=O)O)/C=C/[C@@H]1OC(=O)C=C[C@@H]1C,active,active,active
O=S(=O)(NCCN(C/C=C/c1ccc(F)cc1)C/C=C/c1ccc(F)cc1)c1cccc2cnccc12,inactive,inactive,inactive
C[C@@H]1CN([C@@H](C)CO)C(=O)c2cccc(NC(=O)CCCCCC(=O)Nc3ccccc3N)c2O[C@@H]1CN(C)C(=O)Nc1ccc(C(F)(F)F)cc1,inactive,inactive,inactive
C[C@H](CO)N1C[C@H](C)[C@@H](CN(C)S(=O)(=O)c2ccccc2)Oc2ccc(NC(=O)Cn3cnnn3)cc2CC1=O,inactive,inactive,inactive
C[C@H](CO)N1C[C@H](C)[C@@H](CN(C)Cc2ccc(C(=O)O)cc2)Oc2c(NC(=O)C3CC3)cccc2C1=O,inactive,inactive,inactive
NCC[C@@H]1CC[C@@H](NC(=O)C2CCC2)[C@@H](CO)O1,inactive,inactive,inactive
COCC#Cc1cnc2c(c1)C(=O)N([C@H](C)CO)C[C@H](C)[C@H](CN(C)S(=O)(=O)c1cccc(OC)c1)O2,inactive,inactive,inactive
C[C@H]1CN([C@@H](C)CO)C(=O)c2cc(C#Cc3cccnc3)cnc2O[C@H]1CN(C)S(=O)(=O)c1ccccc1F,inactive,inactive,inactive
C[C@H]1CN([C@@H](C)CO)C(=O)Cc2cc(NS(=O)(=O)c3ccc(F)cc3)ccc2O[C@H]1CN(C)S(=O)(=O)c1ccccc1,inactive,inactive,inactive
C[C@@H]1CN([C@@H](C)CO)C(=O)c2cc(NS(=O)(=O)c3cn(C)cn3)ccc2O[C@H]1CN(C)S(=O)(=O)c1ccccc1,inactive,inactive,inactive
COc1ccc(NC(=O)N(C)C[C@@H]2OCCCC[C@@H](C)Oc3ccc(NC(=O)Cc4ccccc4)cc3C(=O)N([C@H](C)CO)C[C@H]2C)cc1,inactive,inactive,inactive
Cc1c(C)c(C)c(CSc2ccccc2N)c(C)c1C,inactive,inactive,inactive
O=c1[nH]cnc2[nH]ncc12,inactive,inactive,inactive
COc1ccc([Si](C)(C)[C@@H]2[C@@H](CCO)O[C@]3(C(=O)N(Cc4cccc(N5C(=O)c6ccccc6Oc6ccccc65)c4)c4ccccc43)[C@H]2C)cc1,inactive,active,inactive
COc1c2occc2cc2ccc(=O)oc12,inactive,active,inactive
C[C@H]1CN([C@@H](C)CO)C(=O)c2cc(NC(=O)Nc3ccc4c(c3)OCO4)ccc2O[C@H]1CN(C)Cc1ccc(Cl)c(Cl)c1,inactive,inactive,inactive
O=C(C[C@@H]1CC[C@H]2[C@@H](COC[C@H](O)CN2S(=O)(=O)c2cccnc2)O1)NCc1ccc(Cl)c(Cl)c1,inactive,inactive,inactive
C[C@@H]1CCCCO[C@H](CN(C)S(=O)(=O)c2ccc(Cl)cc2)[C@H](C)CN([C@H](C)CO)C(=O)c2cc(NS(=O)(=O)c3ccccc3)ccc2O1,inactive,inactive,inactive
C[C@H]1CN([C@@H](C)CO)C(=O)c2cccc(NS(=O)(=O)c3ccccc3)c2O[C@@H]1CN(C)S(=O)(=O)c1ccccc1,inactive,inactive,inactive
COCCNC(=O)[C@H]1[C@H](CO)[C@H]2Cn3c(ccc(-c4ccccc4F)c3=O)[C@@H]1N2S(C)(=O)=O,inactive,inactive,inactive
CNC[C@H]1OCCCC[C@H](C)Oc2ccc(NC(=O)c3ccncc3)cc2C(=O)N([C@@H](C)CO)C[C@@H]1C,inactive,inactive,inactive
